# Laboratory results from PubChem BioAssay AID504339 (National Center for Advancing Translational Sciences (NCATS), 2011).
# The campaign covered roughly 390,000 compounds. About 17,000 (4.4%) were called active. Inconclusive results, whose numbers are uncertain, are shown with a selection of clear calls. Calls come from the whole dose curve; as a rule, active = well fitted inhibition curve with a large enough effect; inconclusive = small, poorly fitted or top-dose-only effect; inactive = no such curve, though single readings can be large or run the other way. Potencies beside an inconclusive call are fits to weak or partial responses and may not hold up.
# Molecular target: Lysine-specific demethylase 4A (Homo sapiens) (UniProt O75164)
# Assay: qHTS Assay for Inhibitors of JMJD2A-Tudor Domain; note: nearly all actives have a fitted effect of over 50% in size
# Settings: AlphaScreen JMJD2A-Tudor / H3K4me3 peptide binding; series mostly up to 114 µM
# Potency is the fitted concentration of half-maximal effect; tags give direction and shape of the fitted curve.
# UniProt O75164, sequence (O75164 whole entry, looked up, the tested form may be a part): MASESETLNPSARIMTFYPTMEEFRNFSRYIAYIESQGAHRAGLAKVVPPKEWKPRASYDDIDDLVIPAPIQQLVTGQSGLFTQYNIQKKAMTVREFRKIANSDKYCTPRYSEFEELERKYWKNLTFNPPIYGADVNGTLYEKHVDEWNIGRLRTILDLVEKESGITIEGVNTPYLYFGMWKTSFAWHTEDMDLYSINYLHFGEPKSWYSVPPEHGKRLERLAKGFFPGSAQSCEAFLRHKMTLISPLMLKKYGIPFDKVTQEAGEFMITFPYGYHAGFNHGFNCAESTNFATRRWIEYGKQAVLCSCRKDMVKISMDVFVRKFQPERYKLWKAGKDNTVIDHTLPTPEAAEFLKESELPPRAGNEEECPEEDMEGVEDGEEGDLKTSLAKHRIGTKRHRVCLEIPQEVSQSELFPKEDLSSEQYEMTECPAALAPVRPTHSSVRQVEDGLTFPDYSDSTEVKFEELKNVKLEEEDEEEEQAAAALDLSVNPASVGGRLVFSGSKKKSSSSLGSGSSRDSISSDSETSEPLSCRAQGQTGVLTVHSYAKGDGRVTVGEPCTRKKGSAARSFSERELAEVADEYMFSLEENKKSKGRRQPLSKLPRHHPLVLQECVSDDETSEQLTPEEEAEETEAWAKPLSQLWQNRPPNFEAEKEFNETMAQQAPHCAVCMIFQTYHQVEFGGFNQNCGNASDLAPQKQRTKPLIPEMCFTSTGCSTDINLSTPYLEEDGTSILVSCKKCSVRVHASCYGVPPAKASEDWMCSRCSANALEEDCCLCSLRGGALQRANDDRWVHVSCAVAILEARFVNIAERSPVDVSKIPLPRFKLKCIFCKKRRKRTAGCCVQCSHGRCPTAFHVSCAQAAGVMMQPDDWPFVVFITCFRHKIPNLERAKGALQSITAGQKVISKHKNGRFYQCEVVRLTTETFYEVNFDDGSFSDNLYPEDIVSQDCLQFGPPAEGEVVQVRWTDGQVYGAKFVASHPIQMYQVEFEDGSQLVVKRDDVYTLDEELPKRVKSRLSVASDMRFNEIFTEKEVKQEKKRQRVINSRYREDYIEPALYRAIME
row,SMILES,Potency
1,CCc1ccc(OCC(=O)N(Cc2ccc(C(C)C)cc2)C2CCS(=O)(=O)C2)cc1 (stereo not drawn),inactive
2,Cc1ccc(Cl)c(NC(=S)N(CCCN2CCOCC2)Cc2ccco2)c1,"inconclusive: 50.1 µM [inhibitor, partial curve]"
3,Cc1ccc(C(=O)N/C(=C\c2cccs2)C(=O)NCCCn2ccnc2)cc1C,"inconclusive: 79.4 µM [inhibitor, partial curve]"
4,CCOC(=O)C1CCCN(Cc2cccc(Cl)c2)C1 (stereo not drawn),active: 2.82 µM
5,COc1ccccc1CN1C[C@@H]2C[C@@H](c3cccc(O)c3)N3CCC[C@@]23C1=O,"inconclusive: 25.1 µM [inhibitor, single point]"
6,CC(C)(C)CCN1CCC(CN2CCNC(=O)C2=O)CC1,"inconclusive: 56.2 µM [inhibitor, partial curve]"
7,COc1ccc(NC(=S)Nc2cccc3ccccc23)cc1OC,"inconclusive: 50.1 µM [inhibitor, partial curve]"
8,Cc1ccc(CN2CCN(/N=C/c3cccn3C)CC2)c(C)c1,active: 39.8 µM
9,COc1cccc(-c2cc(C(F)(F)F)n3ncc(C(=O)OC(C)C)c3n2)c1,inactive
10,O=[N+]([O-])c1c(NCc2ccco2)ncnc1NCc1ccco1,"inconclusive: 44.7 µM [inhibitor, partial curve]"
11,COc1ccc(-n2c(C)cc(C(=O)CN3C(=O)C(=O)N(Cc4ccccc4)C3=O)c2C)cc1,"inconclusive: 35.5 µM [inhibitor, full curve, poor fit]"
12,Cc1ccc2c(CC(=O)N(Cc3ccc(N(C)C)cc3)Cc3ccco3)coc2c1C,active: 12.6 µM
13,COc1ccccc1C(=O)N/C(=C\c1cn(S(=O)(=O)N(C)C)c2ccccc12)C(=O)N1CCCC1,"inconclusive: 70.8 µM [inhibitor, partial curve, poor fit]"
14,CCCc1nc2ccc(NC(=O)c3cccs3)cc2c(=O)n1Cc1ccccc1Cl,"inconclusive: 28.2 µM [inhibitor, single point]"
15,CCc1cccc(CC)c1NC(=O)CNCc1cccs1,active: 25.1 µM
16,Cc1ccc(C(=O)Nc2cc3[nH]c(=O)oc3cc2C)cc1,inactive
17,N#Cc1ccccc1CSc1nnc(-c2ccc(Br)cc2)o1,inactive
18,CN(C)c1ccc(CNC(=O)CCCN2C(=O)c3cccnc3Oc3ccc(Cl)cc32)cc1,"inconclusive: 56.2 µM [inhibitor, partial curve]"
19,CC(=O)Nc1ccc(N/C(C)=C/C(=O)c2cccnc2)cc1,inactive
20,O=S(=O)(NCCc1nnc2ccc(SCc3ccccc3Cl)nn12)c1ccccc1,inactive
21,CN(C)C(=O)CCc1ccc2c3c([nH]c2c1)[C@]1(CCC2CCCC2)[C@@H](C(=O)N2CCOCC2)C[C@H](CC(=O)NCC24CC5CC(CC(C5)C2)C4)C(=O)N1CC3,"inconclusive: 56.2 µM [inhibitor, partial curve]"
22,Cc1cn(CCC(=O)Nc2ccccc2N2CCOCC2)c2ccccc12,inactive
23,CCOc1cccc(NCc2cc3c(C(C)(C)C)nn(-c4ccccc4)c3[nH]c2=O)c1,"inconclusive: 25.1 µM [inhibitor, full curve]"

row,SMILES,Potency
1,O=C(CCN1C(=O)/C(=C/C=C/c2ccccc2)SC1=S)Nc1cccnc1,"inconclusive: 44.7 µM [inhibitor, single point]"
2,Cc1cc(/C=C2/NC(=O)NC2=O)c(C)n1-c1ccc(N2CCOCC2)cc1,"inconclusive: 12.6 µM [inhibitor, full curve, poor fit]"
3,CCCCSc1nnc2c(n1)OC(c1ccc(Br)s1)Nc1ccccc1-2 (stereo not drawn),"inconclusive: 89.1 µM [inhibitor, single point]"
4,COC(=O)CNC(=O)C(Cc1c[nH]c2ccccc12)NC(=O)Oc1ccccc1 (stereo not drawn),inactive
5,Cc1ccc(S(=O)(=O)CCC(=O)Nc2nc(-c3ccccn3)cs2)cc1,active: 89.1 µM
6,CCCCCCSc1ccc([C@@H]2[C@@H]3C(=O)N(C)C(=O)[C@@H]3[C@]3(C(=O)OC)CCCCN23)cc1OC,inactive
7,NC(=O)Oc1cccc(OC(N)=O)c1,inactive
8,Cc1ccc2ccccc2c1NC(=O)c1ccco1,inactive
9,CCOC(=O)c1ccc(NC(=O)COc2coc(CN3CCc4ccccc43)cc2=O)cc1,"inconclusive: 56.2 µM [inhibitor, partial curve]"
10,COc1ccc(OC)c(NC(=O)c2nc(S(=O)(=O)Cc3ccc(F)cc3)ncc2Cl)c1,"inconclusive: 10 µM [inhibitor, full curve, poor fit]"
11,CCCCOc1ccc(C(=O)N/C(=C/C=C/c2ccccc2)C(=O)NCCO)cc1,inactive
12,O=C(Cc1ccc([N+](=O)[O-])cc1)NCCc1ccc2c(c1)OCO2,"inconclusive: 31.6 µM [inhibitor, single point]"
13,Cc1cc(-c2csc(N)n2)c(C)n1-c1ccccc1,"inconclusive: 63.1 µM [inhibitor, partial curve]"
14,NC(=O)CCCn1c(C(=O)c2ccc(Cl)cc2)c2ccc(C(F)(F)F)cc2[n+]1[O-],"inconclusive: 89.1 µM [inhibitor, partial curve]"
15,CCOc1ccccc1N1CSC2=C(C#N)C(c3c(OC)ccc4ccccc34)CC(=O)N2C1 (stereo not drawn),active: 35.5 µM
16,CC1=C(C#N)C(=O)NC(=O)/C1=C\c1ccc(-c2cc(C)c(C)cc2[N+](=O)[O-])o1,active: 56.2 µM
17,COC(=O)CSc1cc(SCC(=O)OC)c(C#N)c(SCC(=O)OC)c1,"inconclusive: 89.1 µM [inhibitor, single point]"
18,O=S1(=O)N=C(Nc2nncs2)c2ccccc21,"inconclusive: 15.8 µM [inhibitor, full curve]"
19,O=c1cc(CO)oc(CN2CCN(CCO)CC2)c1O,active: 2.82 µM
20,NC1=NC(=O)/C(=C\c2ccco2)S1,active: 50.1 µM
21,O=C1c2c(O)cccc2C(C2OC(CO)[C@@H](O)[C@H](O)[C@H]2O)c2cc(CO)cc(O)c21 (stereo partly drawn),inactive
22,CC(=O)Nc1cccc(C(=O)NNC(=O)c2n[nH]c(=O)c3ccccc23)c1,"inconclusive: 31.6 µM [inhibitor, partial curve]"
23,O=C(C1=C(O)C(=O)N(CCN2CCOCC2)C1c1ccc(F)cc1)c1cccs1 (stereo not drawn),inactive

row,SMILES,Potency
1,CCN(CC)S(=O)(=O)c1ccc2c(c1)nc(CN(C)C(=O)Nc1ccc(C)c(Cl)c1)n2C,inactive
2,C[C@H](CO)N1C[C@H](C)[C@@H](CN(C)Cc2ccc(Cl)c(Cl)c2)Oc2ccc(NC(=O)Cn3cnnn3)cc2C1=O,"inconclusive: 28.2 µM [inhibitor, full curve, poor fit]"
3,O=C(O)CCc1nn2c3ccccc3n(CCO)c2nc1=O,inactive
4,COc1ccc(OC)c(-n2cnc3cc(C(=O)NCCCN4CCOCC4)ccc32)c1,"inconclusive: 79.4 µM [inhibitor, single point]"
5,CCOC(=O)C1(Cc2cccc(OC)c2)CCN(C/C=C/c2ccc(OC)cc2)CC1,"inconclusive: 11.2 µM [inhibitor, partial curve]"
6,CCN1CCN(CCCNC(=O)Cn2c(-c3cccs3)cc3cc(Cl)ccc32)CC1,inactive
7,COc1ccc(NC(=O)CN(C)C(=O)c2ccc3[nH]c4c(c3c2)CC(C)CC4)cc1 (stereo not drawn),"inconclusive: 14.1 µM [inhibitor, full curve, poor fit]"
8,Cc1ccc2nc(SCc3cn4cccnc4n3)[nH]c2c1,"inconclusive: 31.6 µM [inhibitor, single point]"
9,Cc1ccc2[nH]c(=O)c(CN(Cc3cccnc3)Cc3nnnn3CCN3CCOCC3)cc2c1,"inconclusive: 3.16 µM [inhibitor, single point]"
10,O=S(=O)(Nc1ccc(O)c(Sc2nc3ccccc3s2)c1)c1cc(Cl)ccc1Cl,"inconclusive: 39.8 µM [inhibitor, partial curve]"
11,O=C(N/N=C/c1ccc(N2CCOCC2)o1)c1ccccc1[N+](=O)[O-],"inconclusive: 89.1 µM [inhibitor, single point]"
12,CCC(=O)N1c2ccccc2CC1C(=O)NCCCN1CCN(c2ccc(OC)cc2)CC1 (stereo not drawn),"inconclusive: 44.7 µM [inhibitor, partial curve]"
13,Fc1cccc(Nc2nc(N3CCOCC3)nc(N3CCOCC3)n2)c1,inactive
14,COc1cccc(-c2nc(CS(=O)(=O)CC(=O)N3CCN(c4ccccc4)CC3)c(C)o2)c1,"inconclusive: 31.6 µM [inhibitor, partial curve]"
15,Cc1cc(C)c(CSc2ncc(-c3ccc([N+](=O)[O-])cc3)[nH]2)c(C)c1,"inconclusive: 25.1 µM [inhibitor, single point]"
16,C#CCOCCOCCOCCNc1nc(N2CCN(C(=O)[C@H](Cc3cc4ccccc4[nH]3)n3cc(C(N)CC(C)C)nn3)CC2)nc(N2CCN(C(=O)[C@H](CCC(=O)O)n3cc(C(N)[C@H](C)CC)nn3)CC2)n1 (stereo partly drawn),active: 56.2 µM
17,CC(C)Sc1nc(N2CCCC2)c2c(c1C#N)CC(C)(C)OC2,inactive
18,CCOc1ccc(NC(=O)CSc2ccc(-c3ccccn3)nn2)cc1,"inconclusive: 3.98 µM [inhibitor, full curve]"
19,O=C(Nc1ccccc1)c1cccc(N2CCCS2(=O)=O)c1,inactive
20,Cc1cccc(N2CCN(C(=O)c3ccc(Cl)c(S(=O)(=O)NCc4ccco4)c3)CC2)c1C,"inconclusive: 56.2 µM [inhibitor, partial curve, poor fit]"
21,COc1cccc(OC)c1OCCCCN1CCCC1,active: 7.94 µM
22,COc1cccc(NC(=S)N(CCc2c(C)[nH]c3ccccc23)Cc2ccco2)c1,"inconclusive: 56.2 µM [inhibitor, partial curve]"
